Reference: PMC1513213
These are yes or no findings as the source states them, for the method shown. In cells and extracts the contact can be indirect. Some results given as binding are weak or reduced against the parent protein; the word gives no strength. Where a sequence is shown, tags or fusion partners need not be part of it.

Chains of the proteins cited; added tags and fusions are not shown.
UniProt O75410: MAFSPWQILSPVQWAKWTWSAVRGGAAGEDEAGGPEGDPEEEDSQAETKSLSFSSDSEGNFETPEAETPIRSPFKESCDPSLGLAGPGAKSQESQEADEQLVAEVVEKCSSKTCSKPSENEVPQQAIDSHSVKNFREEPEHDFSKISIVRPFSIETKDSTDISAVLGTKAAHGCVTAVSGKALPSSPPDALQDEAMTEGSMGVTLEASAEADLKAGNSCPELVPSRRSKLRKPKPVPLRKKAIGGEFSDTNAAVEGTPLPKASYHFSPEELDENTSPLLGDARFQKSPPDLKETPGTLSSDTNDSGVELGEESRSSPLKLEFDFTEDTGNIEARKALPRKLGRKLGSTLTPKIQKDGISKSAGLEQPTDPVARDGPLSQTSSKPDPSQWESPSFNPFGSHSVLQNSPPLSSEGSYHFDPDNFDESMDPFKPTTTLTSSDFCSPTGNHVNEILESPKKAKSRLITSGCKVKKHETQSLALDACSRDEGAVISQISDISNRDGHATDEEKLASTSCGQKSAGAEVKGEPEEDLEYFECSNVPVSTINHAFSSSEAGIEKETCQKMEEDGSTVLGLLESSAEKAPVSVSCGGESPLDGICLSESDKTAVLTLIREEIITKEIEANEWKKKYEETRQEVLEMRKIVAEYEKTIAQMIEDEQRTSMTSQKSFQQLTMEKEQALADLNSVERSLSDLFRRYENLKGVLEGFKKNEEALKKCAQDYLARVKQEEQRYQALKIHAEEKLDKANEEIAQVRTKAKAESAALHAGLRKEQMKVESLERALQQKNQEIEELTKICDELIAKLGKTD
UniProt P31946: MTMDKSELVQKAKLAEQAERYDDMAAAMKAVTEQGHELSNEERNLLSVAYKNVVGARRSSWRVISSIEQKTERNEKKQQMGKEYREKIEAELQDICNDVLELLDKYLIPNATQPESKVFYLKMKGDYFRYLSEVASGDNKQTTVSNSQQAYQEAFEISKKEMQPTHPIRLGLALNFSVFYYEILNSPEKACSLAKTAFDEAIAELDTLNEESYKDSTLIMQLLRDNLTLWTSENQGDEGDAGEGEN

T1: LET-756::GFP (C. elegans) (UniProt Q11184)
T1 sequence: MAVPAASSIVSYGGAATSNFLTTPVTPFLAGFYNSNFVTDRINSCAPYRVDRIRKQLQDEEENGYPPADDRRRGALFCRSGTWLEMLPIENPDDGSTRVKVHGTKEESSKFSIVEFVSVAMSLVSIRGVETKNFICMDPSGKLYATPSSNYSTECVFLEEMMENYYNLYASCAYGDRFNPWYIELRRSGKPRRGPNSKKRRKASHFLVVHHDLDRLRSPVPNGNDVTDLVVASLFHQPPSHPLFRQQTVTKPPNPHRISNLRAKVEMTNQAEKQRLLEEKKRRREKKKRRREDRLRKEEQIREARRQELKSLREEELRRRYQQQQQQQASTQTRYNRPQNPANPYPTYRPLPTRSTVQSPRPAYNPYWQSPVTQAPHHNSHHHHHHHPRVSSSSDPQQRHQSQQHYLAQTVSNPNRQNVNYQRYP


Target: T1, LET-756::GFP (C. elegans)
Assay: co-IP; Cos-1 cells cotransfected with HA-tagged partner and LET-756::GFP, lysed 24 h later in triton buffer (10 mM Tris pH 7.4, 100 mM NaCl, 2.5 mM MgCl2, 1% triton, 1 mM EDTA, 10 mM DTT); immunoprecipitated with anti-GFP, blot with anti-HA then anti-GFP

| binding | Molecule |
| --- | --- |
| binds | HA-tagged DAF-21 (from UniProt Q18688 1-702) |
| no binding | HA-tagged TACC1 (from UniProt O75410 1-805) |
| binds | HA-tagged 14-3-3β (from UniProt P31946 1-246) |
| binds | HA-tagged RPL-6 (protein, UniProt P47991 1-217) MVGKRNLPVISRNFDLSPGVLRFSASRLRLKKGEKKPKFTKDTSAKLPKLQRNGTKFALGHSKTVTLRKTLTPGTVLIVLAGRHKGKRVVFLKQLPQSGLLLVTGPHKINGFPLRRIGQAFVIATSLKVNVSGVKIPEHINDEYFKRKSTAQKTGKNIFASGKTEYTVSEQRKKDIKTVDAPILAAIKKHPEHKFLFGYLGTRFSLGKNQYPHKMQF |
| binds | HA-tagged FTT-1/PAR-5 (protein, UniProt P41932 1-248) MSDTVEELVQRAKLAEQAERYDDMAAAMKKVTEQGQELSNEERNLLSVAYKNVVGARRSSWRVISSIEQKTEGSEKKQQLAKEYRVKVEQELNDICQDVLKLLDEFLIVKAGAAESKVFYLKMKGDYYRYLAEVASEDRAAVVEKSQKAYQEALDIAKDKMQPTHPIRLGLALNFSVFYYEILNTPEHACQLAKQAFDDAIAELDTLNEDSYKDSTLIMQLLRDNLTLWTSDVGAEDQEQEGNQEAGN |
| binds | HA-tagged C18A3.3 (protein, UniProt Q09958 1-340) MVRKMNKLAKRLASTSKSRQPEPESDSDGSEFDFDNAIEEKPMEAMDIEEVESDGDDDERELQAAFAAGLLKDGLNIQVAKKRPIINKSAEMKEKLAEITKDLPWVETLEVVTPHSEMDKKVENDDFQRELNFYKQAEKAVQIAYPRLLNLGIKVLRPTDYYAEMAKSDTHMQKVRKRLLGIQEMKERQEAFRRIREEKKFAVKVQKEVLAAKNTEKKNLAEAVKKHKKGMKQQLEDMLNNVKRHGLDQDDDAPTGAFGDRLGGRGGAGRGGAGRGGSMRNAGELKRKLKSDKFGYGGKKKGMKRNNKESFNDLFGAPRGGFGGRGRGGGRGGRGGRGRR |
| binds | HA-tagged KIN-3 (protein, UniProt P18334 1-360) MPPIPSRARVYAEVNPSRPREYWDYEAHMIEWGQIDDYQLVRKLGRGKYSEVFEGFKMSTDEKVVVKILKPVKKKKIKREIKILENLRGGTNIITLLDVVKDPISRTPALIFEHVNNSDFKQLYQTLSDYDIRYYLYELLKALDFCHSQGIMHRDVKPHNVMIDAEKRELRLIDWGLAEFYHPRQDYNVRVASRYFKGPELLVDYQCYDYSLDMWSLGCMLASMIFRKEPFFHGHDNYDQLVRIAKVLGTDELYEYIARYHIDLDPRFNDILGRHSRKRWERFIHAENQHLVTPEALDFLDKLLRYDHAERLTAQEAMGHEYFRPVVEAHARANGTEQADGQGASNSASSQSSDAKIDGA |
| binds | HA-tagged RPS-16 (protein, UniProt Q22054 1-144) MTSTVQSVQTFGRKKTATAVAHCKKGQGLIKVNGRPLEFLEPQILRIKLQEPLLLVGKERFQDVDIRIRVSGGGHVAQIYAVRQALAKALVAYYHKYVDEQSKRELKNIFAAYDKSLLVADPRRRESKKFGGPGARARYQKSYR |
| binds | HA-tagged PAL-1 (protein, UniProt P34766 1-270) MSVDVKSDFSENESSSTPSPTTVPADVTWPHYPMMPFMQPHPLREKMLQPTFDPQIYGRWSQMGDTGFYGHPDLYPFGLPQLAANGQIPAVEAVDVKPPLSNGSSSSDSGMYPSPSDMMTPFPSTSSGAASSSELSAAAAAAANYQMRAATCYQQSVWPFMDYQQFQGFSWKMPLGNNHGKDRRSSSDGKTLPTGPGTNNVRVRTADKYRMVYSDYQRLELEKEFHTSPFITSDRKSQLSTMLSLTERQIKIWFQNRRAKDRRDKQKIRL |
| binds | HA-tagged FTT-2 (protein, UniProt Q20655 1-248) MSDGKEELVNRAKLAEQAERYDDMAASMKKVTELGAELSNEERNLLSVAYKNVVGARRSSWRVISSIEQKTEGSEKKQQMAKEYREKVEKELRDICQDVLNLLDKFLIPKAGAAESKVFYLKMKGDYYRYLAEVASGDDRNSVVEKSQQSYQEAFDIAKDKMQPTHPIRLGLALNFSVFFYEILNAPDKACQLAKQAFDDAIAELDTLNEDSYKDSTLIMQLLRDNLTLWTSDAATDDTDANETEGGN |
